Assay results from the supplement of paper PMC8728848.
The list shows a part of the results.

Assays:
Experiment in all cases: glycan array binding signal (z-score within array); higher = stronger binding
Details in all cases: glycan notation: IUPAC condensed, linker removed
[1] = molecular target: Gal3S(b1-3)[Fuc(a1-4)]GlcNAc
Outline: (§1)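 Glycan array data came from 3228 arrays in the Consortium for Functional Glycomics database, and only arrays with an available protein sequence were kept. Glycan names were put into IUPAC-condensed notation, and columns mapping to the same glycan were averaged. The binding signal is a within-array Z-score, averaged across arrays of one protein sequence run at different concentrations or buffers and across linkers. A negative Z-score can be read as non-binding.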

[2] = molecular target: Gal3S(b1-4)Glc
Outline: as §1

[3] = molecular target: Gal3S(b1-4)Glc6S
Outline: as §1

[4] = molecular target: Gal3S(b1-4)GlcNAc
Outline: as §1

[5] = molecular target: Gal3S(b1-4)[Fuc(a1-3)]Glc6S
Outline: as §1

[6] = molecular target: Gal3S(b1-4)[Fuc(a1-3)]GlcNAc
Outline: as §1

[7] = molecular target: Gal3S(b1-4)[Fuc(a1-3)]GlcNAc6S
Outline: as §1

[8] = molecular target: Gal3S4S(b1-4)GlcNAc
Outline: as §1

[9] = molecular target: Gal3S6S(b1-4)GlcNAc
Outline: as §1

[10] = molecular target: Gal3S6S(b1-4)GlcNAc6S
Outline: as §1

[11] = molecular target: Gal4S(b1-4)GlcNAc
Outline: as §1

[12] = molecular target: Gal4S6S(b1-4)GlcNAc
Outline: as §1

[13] = molecular target: Gal6P(b1-4)GlcNAc
Outline: as §1

[14] = molecular target: Gal6S(b1-3)GlcNAc
Outline: as §1

[15] = molecular target: Gal6S(b1-3)GlcNAc6S
Outline: as §1

[16] = molecular target: Gal6S(b1-4)Glc
Outline: as §1

[17] = molecular target: Gal6S(b1-4)Glc6S
Outline: as §1

[18] = molecular target: Gal6S(b1-4)GlcNAc
Outline: as §1

[19] = molecular target: Gal6S(b1-4)GlcNAc6S
Outline: as §1

[20] = molecular target: GalNAc(a1-3)Gal
Outline: as §1

[21] = molecular target: GalNAc(a1-3)GalNAc
Outline: as §1

[22] = molecular target: GalNAc(a1-3)GalNAc(b1-3)Gal(a1-4)Gal(b1-4)Glc
Outline: as §1

[23] = molecular target: GalNAc(a1-3)GalNAc(b1-3)Gal(a1-4)Gal(b1-4)GlcNAc
Outline: as §1

[24] = molecular target: GalNAc(b1-3)Gal
Outline: as §1

[25] = molecular target: GalNAc(b1-3)Gal(a1-4)Gal(b1-4)GlcNAc
Outline: as §1

[26] = molecular target: GalNAc(b1-3)Gal(a1-4)Gal(b1-4)GlcNAc(b1-3)Gal(b1-4)Glc
Outline: as §1

[27] = molecular target: GalNAc(b1-3)Gal(a1-6)Gal(b1-4)Glc
Outline: as §1

[28] = molecular target: GalNAc(b1-3)GalNAc
Outline: as §1

[29] = molecular target: GalNAc(b1-3)GlcNAc
Outline: as §1

[30] = molecular target: GalNAc(b1-4)Gal(b1-4)Glc
Outline: as §1

[31] = molecular target: GalNAc(b1-4)GlcNAc
Outline: as §1

[32] = molecular target: GalNAc(b1-4)GlcNAc(b1-2)Man
Outline: as §1

[33] = molecular target: GalNAc(b1-4)GlcNAc(b1-2)Man(a1-3)[GalNAc(b1-4)GlcNAc(b1-2)Man(a1-6)]Man(b1-4)GlcNAc(b1-4)GlcNAc
Outline: as §1

[34] = molecular target: GalNAc(b1-4)GlcNAc(b1-3)GalNAc(b1-4)GlcNAc
Outline: as §1

[35] = molecular target: GalNAc(b1-4)GlcNAc6S
Outline: as §1

[36] = molecular target: GalNAc(b1-6)GalNAc
Outline: as §1

[37] = molecular target: GalNAc3S(b1-4)GlcNAc
Outline: as §1

[38] = molecular target: GalNAc3S(b1-4)GlcNAc3S
Outline: as §1

[39] = molecular target: GalNAc3S(b1-4)[Fuc(a1-3)]GlcNAc
Outline: as §1

[40] = molecular target: GalNAc4S6S(b1-4)GlcNAc
Outline: as §1

[41] = molecular target: GalNAc6S(b1-4)GlcNAc
Outline: as §1

[42] = molecular target: Glc(a1-4)Glc
Outline: as §1

[43] = molecular target: Glc(a1-4)Glc(a1-4)Glc(a1-4)Glc
Outline: as §1

[44] = molecular target: Glc(a1-6)Glc(a1-6)Glc
Outline: as §1

[45] = molecular target: Glc(a1-6)Glc(a1-6)Glc(a1-6)Glc
Outline: as §1

B1: CAA (Caragana arborescens) (protein)
chain: VAVEFDTFDNPDWDPRTKHIGIDVNSIRSNKTTQWGFWNRQVADVDISYEASSKTLNVSLYYPGESYIVTDVVDLKDILPEWVRIGF
[1]
  glycan array binding signal (z-score): -0.244
[2]
  glycan array binding signal (z-score): -0.238
[3]
  glycan array binding signal (z-score): -0.24
[4]
  glycan array binding signal (z-score): -0.226
[5]
  glycan array binding signal (z-score): -0.23
[6]
  glycan array binding signal (z-score): -0.228
[7]
  glycan array binding signal (z-score): -0.241
[8]
  glycan array binding signal (z-score): -0.25
[9]
  glycan array binding signal (z-score): -0.235
[10]
  glycan array binding signal (z-score): -0.248
[11]
  glycan array binding signal (z-score): -0.25
[12]
  glycan array binding signal (z-score): -0.251
[13]
  glycan array binding signal (z-score): -0.249
[14]
  glycan array binding signal (z-score): -0.255
[15]
  glycan array binding signal (z-score): -0.252
[16]
  glycan array binding signal (z-score): -0.233
[17]
  glycan array binding signal (z-score): -0.245
[18]
  glycan array binding signal (z-score): -0.239
[19]
  glycan array binding signal (z-score): -0.249
[20]
  glycan array binding signal (z-score): -0.233
[21]
  glycan array binding signal (z-score): -0.249
[22]
  glycan array binding signal (z-score): -0.251
[23]
  glycan array binding signal (z-score): -0.237
[24]
  glycan array binding signal (z-score): -0.231
[25]
  glycan array binding signal (z-score): -0.243
[26]
  glycan array binding signal (z-score): -0.23
[27]
  glycan array binding signal (z-score): -0.245
[28]
  glycan array binding signal (z-score): -0.24
[29]
  glycan array binding signal (z-score): -0.246
[30]
  glycan array binding signal (z-score): -0.246
[31]
  glycan array binding signal (z-score): -0.239
[32]
  glycan array binding signal (z-score): -0.236
[33]
  glycan array binding signal (z-score): -0.081
[34]
  glycan array binding signal (z-score): -0.264
[35]
  glycan array binding signal (z-score): -0.249
[36]
  glycan array binding signal (z-score): -0.248
[37]
  glycan array binding signal (z-score): -0.253
[38]
  glycan array binding signal (z-score): -0.253
[39]
  glycan array binding signal (z-score): -0.255
[40]
  glycan array binding signal (z-score): -0.247
[41]
  glycan array binding signal (z-score): -0.252
[42]
  glycan array binding signal (z-score): -0.218
[43]
  glycan array binding signal (z-score): -0.247
[44]
  glycan array binding signal (z-score): -0.237
[45]
  glycan array binding signal (z-score): -0.216
